Reference: patent US20130197191A1 (published 2013)

Target: recombinant human β-Klotho (UniProt Q86Z14 53-996, biotinylated in the AlphaScreen assays (site not stated))
Assay: binding EC50

Chain of UniProt Q86Z14 (Q86Z14 53-996): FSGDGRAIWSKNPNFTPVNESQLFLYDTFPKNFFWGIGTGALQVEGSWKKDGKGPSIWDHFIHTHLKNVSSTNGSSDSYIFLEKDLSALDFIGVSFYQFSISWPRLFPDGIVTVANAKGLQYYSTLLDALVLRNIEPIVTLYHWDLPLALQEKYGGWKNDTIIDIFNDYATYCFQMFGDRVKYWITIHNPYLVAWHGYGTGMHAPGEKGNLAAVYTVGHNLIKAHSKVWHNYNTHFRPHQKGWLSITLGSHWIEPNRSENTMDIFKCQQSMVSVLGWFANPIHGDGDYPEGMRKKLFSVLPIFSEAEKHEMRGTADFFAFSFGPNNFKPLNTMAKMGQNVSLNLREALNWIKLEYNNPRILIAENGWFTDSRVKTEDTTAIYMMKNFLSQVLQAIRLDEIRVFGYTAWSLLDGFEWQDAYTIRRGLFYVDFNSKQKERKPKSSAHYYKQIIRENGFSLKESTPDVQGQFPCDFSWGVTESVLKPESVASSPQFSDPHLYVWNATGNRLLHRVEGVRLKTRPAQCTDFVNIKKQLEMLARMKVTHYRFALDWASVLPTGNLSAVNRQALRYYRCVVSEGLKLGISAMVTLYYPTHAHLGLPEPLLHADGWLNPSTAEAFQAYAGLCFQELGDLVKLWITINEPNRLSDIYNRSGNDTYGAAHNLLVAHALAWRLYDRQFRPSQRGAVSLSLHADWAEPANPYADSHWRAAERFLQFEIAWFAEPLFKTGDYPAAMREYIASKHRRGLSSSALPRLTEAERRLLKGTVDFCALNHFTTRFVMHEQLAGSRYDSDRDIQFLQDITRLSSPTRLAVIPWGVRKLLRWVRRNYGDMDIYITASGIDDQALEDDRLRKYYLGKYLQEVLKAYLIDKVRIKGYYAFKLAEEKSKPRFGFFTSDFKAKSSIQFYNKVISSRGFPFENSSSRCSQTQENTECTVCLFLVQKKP

B1: β-Klotho walked dimer bKWD28 (designed binder)
chain: CGANEFQCRSTGICVPVEWVCDGDNDCGDGSDEPPVCGDSHILPFSTPGPSTCQPDEFTCSSGRCIPQPWLCDGLNDCGDGSDEPPAHCSAPASEPPGSL
Work on B1 yielded an EC50 of 3.1 nM.

B2: β-Klotho walked dimer bKWD38 (designed binder)
chain: CAAGEFQCSSGRCLPRPWVCDGDNDCGDDSDETNCRASAHTCHSFNQFECRNGQCIPLHLVCDGVPDCGDNSDETDCGDSHILPFSTPGPST
Work on B2 yielded an EC50 of 7 nM.
